# Measured values: publication PMC12040169 (PLOS Biology, 2025)
# Some of the results follow.
# System: T1, C. trachomatis L2/434/Bu expressing GFP (CTL2-GFP)
# T1 construct: L2/434/Bu GFP intracellular growth in HeLa cells
# Design: species or system HeLa; C. trachomatis total inclusion area by high-content imaging, normalised to DMSO
# Details: total inclusion area; 28.5 h, 10 µM; inhibitor
# In short: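 High-content imaging followed the bulk GFP/resorufin measurement: fixed, Hoechst-stained cells were scored for GFP inclusions and host nuclei per well. Total inclusion area and count served as growth proxies, nuclei number as the viability proxy. MIC calculation matched the bulk assay.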
row,SMILES,% of control remaining
1,Cc1ccc2c(c1)C(=O)CC1(CCN(C(=O)Cc3c(C)[nH]c(=O)[nH]c3=O)CC1)O2 [CBK285688],103.068
2,Cn1cc(CNS(=O)(=O)c2ccc(F)c(Br)c2)cn1 [CBK305174],22.0103
3,CCc1nccn1CCC(=O)NC1CCN(c2ccc(F)cc2)CC1 [CBK306760],102.124
4,O=C(c1ccc2[nH]c(=O)[nH]c2c1)N1CCCC2(CCN(C(=O)c3cc(F)c(F)cc3F)C2)C1 (centres unmarked) [CBK131566],81.727
5,CC(C)C(=O)Nc1nnc(-c2ccc(Cl)cc2)o1 [CBK287593],91.7362
6,Cn1cc(NC(=O)C2CCCN(c3ncccn3)C2)cn1 (centres unmarked) [CBK304394],33.6596
7,Nc1nc(SCCCC(=O)NC2CCCCC2)nc2sc3c(c12)CCCC3 [CBK266176],126.203
8,CCCCc1cc(C[C@@H]2C[C@H](NS(C)(=O)=O)C2(C)C)no1 [CBK289702],113.535
9,O=C(NCCc1cccs1)NCc1cc(F)ccc1F [CBK045363],100.538
10,CN(C)C(=O)CSc1nc2cc(Cl)ccc2c(=O)n1CC1CCCO1 (centres unmarked) [CBK305932],39.1341
11,Cc1cc(CC(=O)N2CCC(Cn3cncn3)(C3CCCCC3)CC2)on1 [CBK136795],98.5086
12,Clc1cc(Cl)cc(-c2cn3ccnc3c(NCc3ccncc3)n2)c1 [CBK066664],142.495
13,COc1ccc(C2=NN(C(=O)CCC(=O)O)C(c3cccs3)C2)cc1OC (centres unmarked) [CBK266656],99.4014
14,CCc1ccc(-n2nc3ccc(NC(=S)NC(=O)c4cc5ccccc5o4)cc3n2)cc1 [CBK264258],117.731
15,O=[N+]([O-])c1cc2c(cc1C1NN=C(c3ccccc3)S1)OCO2 (centres unmarked) [CBK262540],94.9781
16,O=C(c1ccncc1)N1C[C@H]2CCc3c(n[nH]c3C(F)(F)F)[C@H]2C1 [CBK282110],98.5012
17,COC(=O)[C@@H](C)NC(=O)[C@@H]1CN(S(C)(=O)=O)CCN1C(=O)c1cccs1 [CBK289623],94.8651
18,O=C(CNS(=O)(=O)c1ccc(F)cc1)N1CCOCC1 [CBK042214],98.0315
19,CC(C)C(=O)N1CCCC(n2nc(-c3cccs3)ccc2=O)C1 (centres unmarked) [CBK284038],38.7744
20,COc1ccc(CN2CCC(N3CCCCC3)CC2)c(OC)c1 [CBK261848],84.7128
21,O=C(Nc1cncc(OC2CCNCC2)n1)c1ccoc1 [CBK036366T],88.8834
22,COc1ccc(CN2CCC(N3CCCCCC3)CC2)cc1OC [CBK264721G],105.875
23,Cc1cnc(NC(=O)c2ncoc2-c2cccs2)s1 [CBK283977],90.6762
24,Fc1ccc(OCCNCC2NCCc3c2[nH]c2ccccc32)cc1 (centres unmarked) [CBK066972],84.3692
25,COc1ccc(/N=C2\S[C@H]3[C@H]([C@@H](O)[C@H](O)C[C@@H]3C(N)=O)N2Cc2ccc(F)cc2)cc1 [CBK288942],108.822

row,SMILES,% of control remaining
1,O=C(N1CCOCC1)N1CCN(c2cncc(-c3ccc(O)cc3)n2)CC1 [CBK126946T],99.4989
2,CCC(CN1CCCC1)NC(=O)C1(c2ccccc2)CCOCC1 (centres unmarked) [CBK282758],121.543
3,CC(C)(C)CC(C)(C)Nc1nc(N)nc(N)n1 [CBK022832],96.6101
4,CCN(CC(=O)NCc1ccncc1)S(=O)(=O)c1ccccc1 [CBK269537],127.206
5,CC1COCC(C)N1c1ccc2nnc(-c3ccc(C(F)(F)F)cc3)n2n1 (centres unmarked) [CBK009548],75.5522
6,O=C(CSc1nnc(CN2CCOCC2)n1-c1ccc(Cl)cc1)N1c2ccccc2SC2C=CC=CC21 (centres unmarked) [CBK268820],90.6354
7,Cn1ncc2c(=O)n(Cc3nnsc3Cl)cnc21 [CBK237374],86.4173
8,Cc1ccc(-n2c(SCC(=O)Nc3ccccc3F)nnc2-c2ccccc2O)c(C)c1 [CBK268905],60.0092
9,O=C(CN1CCCC[C@H]2CN(C(=O)c3cccs3)C[C@H]21)NC1CC1 [CBK285504],82.2529
10,CN(C)CCCC(=O)Nc1ccc2[nH]ccc2c1 [CBK159698],107.105
11,CC(C)(C)c1cc(NC(=O)Cn2nc(C(=O)O)c3ccccc3c2=O)n(-c2ccccc2)n1 [CBK297557],94.2088
12,CCOc1ccsc1C(=O)N1CCC(Cc2ccccc2)CC1 [CBK200186],99.9504
13,O=C(O)c1ccc(S(=O)(=O)c2ccc3c(c2)C(=O)N(c2ccccc2-c2ccccc2)C3=O)cc1 [CBK262760],86.6747
14,O=C(Cn1cc(C(=O)NCC2(c3ccccc3)CCCC2)ccc1=O)NC1CCCC1 [CBK286040],119.064
15,COc1ccc(-c2cnc(N)c(-c3ccc(F)c(Cl)c3)n2)cn1 [CBK063966],95.3716
16,CCOc1ccc(-c2cc(C(=O)NCc3cc(OC)ccc3OC)n[nH]2)cc1 [CBK288116],86.7632
17,CCC(CO)NC(=O)C1(Cc2ccc(-c3cc(C)cc(C)c3)cc2)CCOCC1 (centres unmarked) [CBK286522],117.199
18,O=C(Cc1ccc(F)cc1)N1CC[C@@H](c2ccccc2)[C@H](O)C1 [CBK283714],95.7596
19,Cc1cc(NC(=O)C(C)SCc2cccc(C(F)(F)F)c2)no1 (centres unmarked) [CBK306233],33.9901
20,c1ccc2c(c1)OCC(COc1nccnc1OC1CCN(CC3CC3)CC1)O2 (centres unmarked) [CBK083001T],83.582
21,O=C(CC1CCN(Cc2cccc(C(F)(F)F)c2)CC1)N(Cc1ccccn1)C1CC1 [CBK286494],69.9637
22,Cn1ccnc1C1(O)CCN(C(=O)Nc2cccc(F)c2)CC1 [CBK282279],92.4301
23,CN(C)CCCN(C(=O)c1ccccc1)c1nc2ccc(F)cc2s1 [CBK287640],79.6259
24,O=C(CSc1nnc(CN2CCOCC2)n1-c1ccccc1)N1CCN(c2ccccc2)CC1 [CBK266660],115.809
25,COc1ncc(-c2nccnc2OC2CCCCC2)c(OC)n1 [CBK106745],94.4187
